Laboratory results as given in the supplement of paper PMC10670038.
Counter-ions that a name gives are not always drawn. ± gives the standard deviation of the averaged measurements. Whole data set: some 2,000 compounds, median “relative cell viability vs DMSO, compound + 0.2 uM CuET” near 1, cut for the lowest 2% near 0.25. Some of the results follow.

Tested on: TE10
Test: relative cell viability vs DMSO, compound + 0.2 uM CuET (fraction); TE10 is an esophageal squamous carcinoma line; higher = less cytotoxic
Settings: 2 µM; co-treatment: CuET (bis(diethyldithiocarbamate)copper) 0.2 uM; 48 h
Experimental: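 TE10 ESCC cells (1,000/well, 384-well plates) were treated with Selleck bioactive library compounds at 2 uM combined with 0.2 uM CuET (copper diethyldithiocarbamate) for 48 h. Viability was read by CellTiter-Glo and expressed relative to DMSO wells. Two technical replicates (A, B).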

Compound | relative cell viability
NC(=O)c1cccc(-c2cccc(OC(=O)NC3CCCCC3)c2)c1 | 1.15 ± 0.11
NC(=O)c1cnccn1 [Pyrazinamide] | 0.981 ± 0.086
COc1cc2nc(N3CCCC3)nc(NCCCCCN3CCCC3)c2cc1OC | 1.07 ± 0.058
Nc1nc(N)c(N=O)c(OCC2CCCCC2)n1 | 0.991 ± 0.11
C#Cc1cccc(Nc2ncnc3cc(OCCOC)c(OCCO)cc23)c1 | 1.02 ± 0.013
Cn1cnc2c(F)c(Nc3ccc(Br)cc3F)c(C(=O)NOCCO)cc21 | 1.037 ± 0.0069
CCCCCCCCCCCCCCCCn1cc[n+](Cc2ccccc2)c1C | 0.659 ± 0.018
Cc1cnc(-c2ccccc2C(C)C)nc1NCc1ccc(-n2ccnn2)cc1 | 1.29 ± 0.097
Nc1ccc(-c2ccc3ncc4ccc(=O)n(-c5cccc(C(F)(F)F)c5)c4c3c2)cn1 [Torin 2] | 0.569 ± 0.16
CSc1nc2cc(Cl)c(Oc3cccc(Cl)c3Cl)cc2[nH]1 [Triclabendazole] | 1.27 ± 0.16
Cc1cc2c(s1)Nc1ccccc1N=C2N1CCN(C)CC1 [Olanzapine] | 1.02 ± 0.046
CC(=NNC(=S)N1CCC1)c1ccccn1 | 1.04 ± 0.0018
CN1C(=O)C(Cc2c[nH]c3ccccc23)NC1=S (configuration not stated) [Necrostatin-1] | 1.05 ± 0.077
O=S(=O)(O)Oc1ccc(C(c2ccc(OS(=O)(=O)O)cc2)c2ccccn2)cc1 [Sodium Picosulfate] | 1.16 ± 0.017
CCn1c(-c2nonc2N)nc2c(C#CC(C)(C)O)ncc(OC[C@H]3CCCNC3)c21 | 0.844 ± 0.085
OCCOc1ccc(/C(=C(/CCCl)c2ccccc2)c2ccccc2)cc1 [Ospemifene] | 1.08 ± 0.085
CC(C)OC(=O)C(C)(C)Oc1ccc(C(=O)c2ccc(Cl)cc2)cc1 [Fenofibrate] | 1.01 ± 0.024
Cn1cc(/C=C2\C(=O)Nc3cccnc32)c2ccccc21 | 1.22 ± 0.058
Cc1ccc(NC(=O)C2(c3ccc4c(c3)OC(F)(F)O4)CC2)nc1-c1cccc(C(=O)O)c1 [VX-809 (Lumacaftor)] | 0.959 ± 0.096

Compound | relative cell viability
CC(C)(C)c1ccc(S(=O)(=O)/C=C/C#N)cc1 | 0.107 ± 0.0014
CNC(=O)c1cc(Oc2ccc3nc(N[C@@H]4CCCC[C@H]4O)sc3c2)ccn1 | 0.909 ± 0.12
CC(=O)c1c(C)c2cnc(Nc3ccc(N4CCNCC4)cn3)nc2n(C2CCCC2)c1=O | 1.33 ± 0.026
CCCNC(=O)Nc1ccc(Oc2ncnc3cc(OC)c(OC)cc23)cc1Cl | 1.06 ± 0.1
C[C@@H](O[C@H]1OCCN(Cc2n[nH]c(=O)[nH]2)[C@H]1c1ccc(F)cc1)c1cc(C(F)(F)F)cc(C(F)(F)F)c1 [Aprepitant] | 1.08 ± 0.14
NC(=O)c1ccc(-c2nc(-c3ccccn3)c(-c3ccc4c(c3)OCO4)[nH]2)cc1 | 1.05 ± 0.12
Cc1cn(-c2cc(NC(=O)c3ccc(C)c(Nc4nccc(-c5cccnc5)n4)c3)cc(C(F)(F)F)c2)cn1 [Nilotinib (AMN-107)] | 0.83 ± 0.047
CN/C(=N\CCSCc1nc[nH]c1C)NC#N [Cimetidine] | 0.9836 ± 0.0097
COc1ccc(C2=N[C@@H](c3ccc(Cl)cc3)[C@@H](c3ccc(Cl)cc3)N2C(=O)N2CCNC(=O)C2)c(OC(C)C)c1 [Nutlin-3] | 1.12 ± 0.02
C/C(=C\C(=O)OCCCCCCCCC(=O)O)C[C@@H]1OC[C@H](C[C@@H]2O[C@H]2[C@@H](C)[C@H](C)O)[C@@H](O)[C@H]1O [Mupirocin] | 1.44 ± 0.062
C=C1c2cccc(O)c2C(O)=C2C(=O)[C@]3(O)C(O)=C(C(N)=O)C(=O)[C@@H](N(C)C)[C@@H]3[C@@H](O)[C@H]12 [Methacycline HCl] | 1.43 ± 0.15
O=C(O)c1cc(/N=N/c2ccc(S(=O)(=O)Nc3ccccn3)cc2)ccc1O [Sulfasalazine] | 1.13 ± 0.078
NC(=O)c1ccc(I)c([N+](=O)[O-])c1 [Iniparib (BSI-201)] | 1.07 ± 0.099
CCOC(=O)[C@H](CCc1ccccc1)N[C@@H](C)C(=O)N1C(=O)N(C)C[C@H]1C(=O)O [Imidapril HCl] | 1.07 ± 0.028
C[C@@H]1C[C@H]2[C@@H]3CCC4=CC(=O)C=C[C@]4(C)[C@@]3(Cl)[C@@H](O)C[C@]2(C)[C@@]1(OC(=O)c1ccco1)C(=O)CCl [Mometasone furoate] | 0.844 ± 0.016
C[C@]12CCC3=C4CCC(=O)C=C4CC[C@H]3[C@@H]1CC[C@@]2(O)CC#N [Dienogest] | 1.25 ± 0.074
CS(=O)(=O)c1ccc(-c2nnc(/C=C/c3nnc(-c4ccc(C#N)cc4)o3)n2-c2ccccc2Cl)nc1 | 1.08 ± 0.1
c1coc(CNc2ncnc3[nH]cnc23)c1 [Kinetin] | 1.07 ± 0.03
